# Reference: publication PMC12040169 (PLOS Biology, 2025)
# This is one part of the list.
# Tested on: T1, C. trachomatis L2/434/Bu expressing GFP (CTL2-GFP)
# T1 construct: L2/434/Bu GFP intracellular growth in HeLa cells
# Design: species or system HeLa; C. trachomatis total inclusion area by high-content imaging, normalised to DMSO
# Conditions: total inclusion area; 28.5 h, 10 µM; inhibitor
# Procedure, shortened: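 Post-fluorescence-read fixation, DNA staining with Hoechst and high-content imaging; GFP inclusion area and number per well, and nuclei counts, used as proxies for bacterial growth and host viability.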
row,Structure (SMILES),% of control remaining
1,COc1cc2c(cc1NC(=O)CSc1nc3ccccc3[nH]1)oc1ccccc12 [CBK265153],134.217
2,O=C(NCCN1CCc2ccccc2C1)C1CCCCC1 [CBK305049],65.3109
3,Cn1cc(-c2ncc(OCCn3cccc3)nc2N)cn1 [CBK145170],105.124
4,Nc1ncc(-c2cccc3cccnc23)nc1N1CCOCC1 [CBK063383],87.9002
5,c1ccc(-c2cn3ccnc3c(NCC3CCOCC3)n2)cc1 [CBK037356],132.575
6,O=c1[nH]cc(-c2ccccc2)cc1CNCC1Cc2ccccc2O1 (centres unmarked) [CBK284772],92.2169
7,O=C(O)CSc1nc2ccc([N+](=O)[O-])cc2s1 [CBK262232],89.0038
8,COc1ccc(OC)c(NC(=O)c2c(NCc3ccncc3)sc3c2CCC3)c1 [CBK266007],116.482
9,O=C(Cn1ccc2ccnc(-c3cccs3)c21)N1CCOCC1 [CBK284729],115.013
10,CCC(Sc1nc(C)cc(C)n1)C(=O)N1c2ccccc2Sc2ccccc21 (centres unmarked) [CBK263018],78.1956
11,Cc1ccc([N+](=O)[O-])cc1NC(=O)c1cc(S(=O)(=O)N(C)C)c(Cl)cc1Cl [CBK266764],87.4478
12,Nc1ncnc(NCCC(c2ccccc2)c2ccccc2)c1[N+](=O)[O-] [CBK267294],89.9396
13,Cn1cc(Cl)c(C2CCCCCN2S(=O)(=O)c2ccc3[nH]c(=O)[nH]c(=O)c3c2)n1 (centres unmarked) [CBK286408],91.4619
14,Cc1nc(CCCn2cnc3nccnc3c2=O)sc1C [CBK306962],74.922
15,Cc1cc(C)n(C2CCN(Cc3c(C)nc4ccccn34)CC2)n1 [CBK281614],95.6008
16,Nc1ccc2nc(CCCCCC(=O)O)sc2c1 [CBK016399],60.6809
17,CCCN1CC(NC(=O)c2cc(COc3cccc(F)c3)[nH]n2)CC1=O (centres unmarked) [CBK306912],79.4131
18,c1csc(-c2ccn3c(n2)nc2ccccc23)c1 [CBK287976],60.0458
19,COc1ccc(S(=O)(=O)NCCCN2CCOCC2)c(C)c1C [CBK266519],116.583
20,O=S(=O)(c1ccc(C(F)(F)F)cc1)N1CCC2(CC1)OCCO2 [CBK044520],92.3353
21,Cc1cc(Cl)ccc1OCCCC(=O)Nc1sc2c(c1C(N)=O)CCCCCC2 [CBK265390],94.0347
22,O=[N+]([O-])c1cccc(-c2csc(N/N=C\c3cccc(O)c3)n2)c1 [CBK263418],97.7507
23,CCOC(=O)c1sc(NS(=O)(=O)c2ccc(-c3ccccc3)cc2)nc1C [CBK003784],75.6424
